# Test results taken from publication PMC6919601, “Identification of Plasmodium dipeptidyl aminopeptidase allosteric inhibitors by high throughput screening” (PLoS ONE, 2019).
# About 230 (0.21%) of roughly 110,000 compounds showed an effect of 50% or more. This is one part of the list.
# Biological target: DPAP1 (Plasmodium falciparum, UniProt Q8IIJ9)
# Assay: primary screen, percent inhibition; read by cleavage of a fluorogenic dipeptide substrate; higher = more effect of the substance
# Design: species or system P. falciparum D10 trophozoite lysates; single well
# 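Note: 30 min substrate incubation versus DMSO and 10 µM JCP410 controls.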
# DPAP1, sequence (Q8IIJ9 whole entry, looked up): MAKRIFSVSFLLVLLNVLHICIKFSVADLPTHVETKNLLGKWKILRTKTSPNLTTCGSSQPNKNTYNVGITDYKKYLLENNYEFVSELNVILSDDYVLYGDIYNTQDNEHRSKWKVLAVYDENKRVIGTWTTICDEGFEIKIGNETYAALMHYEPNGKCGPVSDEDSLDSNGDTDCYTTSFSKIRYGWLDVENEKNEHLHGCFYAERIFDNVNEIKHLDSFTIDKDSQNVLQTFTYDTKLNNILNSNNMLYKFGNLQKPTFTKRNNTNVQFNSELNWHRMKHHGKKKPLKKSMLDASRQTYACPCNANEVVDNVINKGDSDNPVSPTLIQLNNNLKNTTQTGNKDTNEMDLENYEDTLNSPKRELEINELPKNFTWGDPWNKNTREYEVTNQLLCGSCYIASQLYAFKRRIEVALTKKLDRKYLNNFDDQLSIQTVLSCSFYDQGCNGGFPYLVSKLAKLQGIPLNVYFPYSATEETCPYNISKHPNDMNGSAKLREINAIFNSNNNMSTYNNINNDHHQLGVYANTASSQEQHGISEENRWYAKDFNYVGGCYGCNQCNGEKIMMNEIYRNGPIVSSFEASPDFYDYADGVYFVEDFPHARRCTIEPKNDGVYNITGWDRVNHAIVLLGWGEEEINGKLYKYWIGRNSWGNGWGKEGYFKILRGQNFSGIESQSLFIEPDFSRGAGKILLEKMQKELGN
row,Structure (SMILES),% Inhibition @ 10 uM
1,Cc1ccc(NC(=O)COc2ccc(S(=O)(=O)NCc3ccccc3)cc2)cc1Cl,-1.55%
2,Cc1ccc(Cl)cc1NC(=O)C1CC(=O)N(c2ccc(F)cc2)C1 (stereo not shown),0.661%
3,c1cnc(N2CCN(Cc3nnc(-c4ccc5c(c4)OCO5)o3)CC2)nc1,2.5%
4,Cc1ccc(N2CC(C(=O)Nc3ccc(Cl)cc3)CC2=O)cc1C (stereo not shown),-10.4%
5,O=C(NCCc1ccccc1)C(Cc1ccccc1)NS(=O)(=O)c1cccc2cccnc12 (stereo not shown),-7.99%
6,CCOc1ccc(CN2CCN(Cc3c[nH]c4ccccc34)CC2)cc1,-1.26%
7,Cc1oc(-c2ccccc2F)nc1CS(=O)(=O)CC(=O)NC1CCCC1,1.55%
8,CCOC(=O)c1cc2c(=O)n3ccccc3nc2n(C(C)C)/c1=N\C(=O)c1cc(OC)cc(OC)c1,4.37%
9,O=C(Nc1cccnc1Cl)c1ccc(C(F)(F)F)cc1,-3.65%
10,Cc1cc(C)c2c(-n3cccc3)c(C(=O)NCCCN(C)Cc3ccccc3)sc2n1,-4.91%
11,COC(=O)CCS(=O)(=O)c1ccc(Br)cc1,-5.41%
12,CCCCn1cnc2scc(-c3ccc(OCCC)cc3)c2c1=O,2.45%
13,CC(C)(C)C(=O)NC(=S)Nc1cccc(O)c1,-6.08%
14,Cc1cccc(NC(=O)C(NC(=O)C2CCCCC2)C(C)C)n1 (stereo not shown),-0.972%
15,O=C(c1ccccc1)c1ccc(NC(=O)C2CCCCC2)cc1,0.907%
16,Cc1ccc(S(=O)(=O)N(CC(=O)NCc2ccncc2)c2cccc(Br)c2)cc1,0.145%
17,c1ccc2[nH]c(CSCCC3CCCCC3)nc2c1,11.9%
18,c1ccc(CN2CCS/C2=N/c2ccccc2)cc1,0.0265%
19,CCn1c(C(=O)O)c(CNCCc2ccc(SC)cc2)c2ccc(C)cc21,-3.86%
20,COc1cccc2c1OC1(C)C(C)C2NC(=S)N1CC1CCCO1 (stereo not shown),-1.29%
21,O=C(NCCn1ccc2ccccc21)C1CCCCC1,-0.396%
22,C=CCn1c(NCc2sccc2C)nc2ccccc21,1.64%
23,CC(=O)C(=CNc1cc(-c2ccc(C)cc2)nn1-c1ccccc1)C(C)=O,-2.8%
24,CCc1cccc(C)c1NC(=O)CN(C1CCCCC1)S(C)(=O)=O,-0.992%
25,COc1ccccc1C(=O)N/C(=C\c1ccc2c(c1)OCO2)C(=O)NCCCCCC(=O)O,7.1%

row,Structure (SMILES),% Inhibition @ 10 uM
1,CCOc1cccc(-c2nc(O)c3c(n2)Oc2c(C)cccc2C3)c1O,5.48%
2,CCCCCC(=O)NCCC(=O)O,-0.415%
3,Cc1ccc(NC(=O)C(C)Oc2ccccc2)nc1 (stereo not shown),-3.16%
4,CC(=O)Nc1ccc(-c2ccc(OCc3ccccc3)cc2)cc1,-1.41%
5,O=C(Nc1ccc(S(=O)(=O)N2CCC(C(=O)O)CC2)cc1)c1ccccc1Cl,1.49%
6,Fc1ccc(Nc2ncnc3ccccc23)cc1Cl,-6.92%
7,O=C(O)CCCN1C(=O)c2ccccc2C1=O,4.73%
8,CC1=[N+]([O-])C2(C)CCCCC2(O)[N+]([O-])=C1C (stereo not shown),-0.0626%
9,Cc1ccc(S(=O)(=O)N(C)CC(=O)Nc2ccccc2C)cc1,-1.99%
10,CCCN1C2=C(C(=O)CC(C)(C)C2)C(c2ccc(OC)c(OC)c2)C2=C1CC(C)(C)CC2=O,-5.28%
11,CC(=O)N1CCN(c2ccc(NCc3ccccc3)cc2)CC1,-7.15%
12,O=C(c1ccc(Cl)cc1)N1CCN(CCN2C(=O)c3cccc4cccc(c34)C2=O)CC1,-5.31%
13,Cc1ccc(C)c(S(=O)(=O)NC(C)C(=O)NCc2ccccn2)c1 (stereo not shown),10.3%
14,Cc1ccc(S(=O)(=O)Cc2ccc(C(=O)N3CCN(c4ccccn4)CC3)o2)cc1,-1.28%
15,CN1C(=O)c2ccccc2C(C(=O)Nc2nccs2)C1c1cccs1 (stereo not shown),-7.02%
16,Cc1c(Cl)cccc1NC(=O)C(O)c1ccccc1 (stereo not shown),0.605%
17,Cc1oc(-c2ccccc2Cl)nc1CS(=O)CC(=O)NCCC(C)C (stereo not shown),0.689%
18,c1ccc(CCSc2nnc3sc4ccccc4n23)cc1,-1.18%
19,COCCCNS(=O)(=O)c1ccc(-c2ccc(O)nn2)o1,-8.17%
20,COc1ccccc1CCn1c(-c2ccccc2)cn2c3c(=O)n(C)c(=O)n(C)c3nc12,-8.05%
21,O=C(NCc1ccc(Cl)cc1)c1ccc2nc3c(cc2c1)CCS3,-3.78%
22,CCCC12CN3CC(C)(CN(C1)C3c1c(C)[nH]c3ccccc13)C2=O (stereo not shown),0.565%
23,O=C(Cn1cnc2c(oc3ccccc32)c1=O)N1CCCCC1,-0.0401%
24,Cc1ccc2c(c1)C(O)c1ccccc1-2 (stereo not shown),-4.76%
